Reference: US20260265409A1 (NANJING LEADS BIOLABS, published 2026)

Columns and labels:
[1] = target: T1, human FAP protein expressed on 293T cells (293T-human FAP) (human, UniProt Q12884 1-760); experiment: flow cytometry on 293T-human FAP cells, PE goat anti-human IgG Fc secondary antibody
T1 sequence: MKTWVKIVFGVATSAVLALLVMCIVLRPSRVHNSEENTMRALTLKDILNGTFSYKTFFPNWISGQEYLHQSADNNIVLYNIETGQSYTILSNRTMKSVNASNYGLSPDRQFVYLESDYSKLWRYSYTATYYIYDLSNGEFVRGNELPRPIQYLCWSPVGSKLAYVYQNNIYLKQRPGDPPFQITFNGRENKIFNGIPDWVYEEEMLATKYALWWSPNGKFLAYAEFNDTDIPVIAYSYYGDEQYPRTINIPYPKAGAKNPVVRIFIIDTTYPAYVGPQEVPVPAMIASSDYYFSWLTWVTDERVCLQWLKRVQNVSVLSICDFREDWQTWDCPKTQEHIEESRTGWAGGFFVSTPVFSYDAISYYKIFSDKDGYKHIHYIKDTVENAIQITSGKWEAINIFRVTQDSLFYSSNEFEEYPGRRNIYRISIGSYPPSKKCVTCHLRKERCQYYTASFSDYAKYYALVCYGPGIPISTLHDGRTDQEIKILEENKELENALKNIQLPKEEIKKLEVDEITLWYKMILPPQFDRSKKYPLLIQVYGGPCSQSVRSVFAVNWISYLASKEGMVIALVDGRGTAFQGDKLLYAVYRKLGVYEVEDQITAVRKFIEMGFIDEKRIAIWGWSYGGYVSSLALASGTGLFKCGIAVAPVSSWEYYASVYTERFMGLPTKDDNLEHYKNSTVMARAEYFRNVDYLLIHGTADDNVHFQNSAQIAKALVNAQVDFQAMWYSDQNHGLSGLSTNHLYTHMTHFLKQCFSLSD
Protocol: The cells were washed twice with PBS, and then fluorescent secondary antibody R-PE-conjugated AffiniPure Goat Anti-Human IgG, Fcγ Fragment Specific (Jackson Immuno Research, Cat #109-116-098) was added. The cells were incubated at 4° C. for 30 min. The cells were washed twice with PBS and then resuspended, and finally, fluorescence signals were detected using the […] (BD Bioscience) flow cytometer.

[2] = target: T2, recombinant human FAP protein (Sino Biological, Cat #10464-H07H) (human, UniProt Q12884 26-760); experiment: BLI (ForteBio Octet RED96), fusion protein captured on AHC sensor, FAP as analyte, 1:1 model
T2 construct: Bought protein
T2 sequence: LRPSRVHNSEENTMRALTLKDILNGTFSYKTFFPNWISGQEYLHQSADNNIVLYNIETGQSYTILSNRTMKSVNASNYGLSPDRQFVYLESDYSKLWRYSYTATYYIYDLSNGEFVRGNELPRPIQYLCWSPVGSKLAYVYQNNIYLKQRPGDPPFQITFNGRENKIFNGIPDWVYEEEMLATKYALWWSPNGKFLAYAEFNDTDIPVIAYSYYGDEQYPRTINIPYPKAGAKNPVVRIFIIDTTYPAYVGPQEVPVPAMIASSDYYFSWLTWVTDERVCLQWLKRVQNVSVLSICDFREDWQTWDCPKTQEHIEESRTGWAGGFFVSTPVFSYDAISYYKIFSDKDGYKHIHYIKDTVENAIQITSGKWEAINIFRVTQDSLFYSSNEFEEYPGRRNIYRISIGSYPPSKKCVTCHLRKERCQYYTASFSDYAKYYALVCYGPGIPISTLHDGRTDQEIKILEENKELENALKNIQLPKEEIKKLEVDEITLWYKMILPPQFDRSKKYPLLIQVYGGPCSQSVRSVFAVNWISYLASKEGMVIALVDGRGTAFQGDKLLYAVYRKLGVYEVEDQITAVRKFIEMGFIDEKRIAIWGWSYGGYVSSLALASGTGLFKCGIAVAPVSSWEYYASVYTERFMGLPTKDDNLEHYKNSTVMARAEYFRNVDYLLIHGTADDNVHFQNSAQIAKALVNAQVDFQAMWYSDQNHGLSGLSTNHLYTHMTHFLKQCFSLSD

[3] = target: T3, human TGFβ1 protein (Sino Biological, Cat #10804-HNAC) (human, UniProt P01137 part only); experiment: BLI (ForteBio Octet RED96), fusion protein captured on AHC sensor, TGFβ1 as analyte, 1:1 model
T3 construct: also called Recombinant human TGFβ1

[4] = target: T4, human TGFβ2 protein (Novoprotein, Cat #CJ79) (human, UniProt P61812 303-414); experiment: BLI (ForteBio Octet RED96), fusion protein captured on AHC sensor, TGFβ2 as analyte, 1:1 model
T4 construct: also called Recombinant human TGFβ2
T4 sequence (looked up): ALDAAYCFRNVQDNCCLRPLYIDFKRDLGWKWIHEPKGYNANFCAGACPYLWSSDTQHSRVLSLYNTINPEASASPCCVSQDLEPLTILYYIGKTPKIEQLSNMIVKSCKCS

T3 sequence (P01137 279-390 limits assumed): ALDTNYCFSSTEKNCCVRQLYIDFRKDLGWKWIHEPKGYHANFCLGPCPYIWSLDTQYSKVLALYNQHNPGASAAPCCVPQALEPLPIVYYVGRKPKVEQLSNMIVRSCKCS

- EC50 (read off the curve) [1]: ~1000 pM
- Kd [2]: < 1 pM
- Kd [3]: 252 pM
- Kd [4]: 804 pM
B1: antibody fusion protein LG-NGR-Trap (other)
heavy: QVQLVQSGAEVKKPGASVKVSCKASGYTFTEYTIHWVRQATGQGLEWIGGINPNNRIPNYNQKFKGRATMTVGTSISTAYMELSSLRSEDTAVYFCARRRIAYGYDEGHAMDYWGQGTLVTVSS[human IgG1 constant region not written out]IPPHVQKSVNNDMIVTDNNGAVKFPQLCKFCDVRFSTCDNQKSCMSNCSITSICEKPQEVCVAVWRKNDENITLETVCHDPKLPYHDFILEDAASPKCIMKEKKKPGETFFMCSCSSDECNDNIIFSEEYNTSNPD
light: DIQMTQSPSSLSASVGDRVTITCKSSQSLLYSRNQKNYLAWFQQKPGKAPKLLIFWASTRESGVPSRFTGSGFGTDFTLTISSLQPEDFATYYCQQYFSYPLTFGQGTKLEIKRTVAAPSVFIFPPSDEQLKSGTASVVCLLNNFYPREAKVQWKVDNALQSGNSQESVTEQDSKDSTYSLSSTLTLSKADYEKHKVYACEVTHQGLSSPVTKSFNRGEC
notes: also called huF19-LG-NGR-Trap; anti-FAP-Trap
